This passage reports activity change, negative = inhibition results from PubChem BioAssay AID1745853 (National Center for Advancing Translational Sciences (NCATS), 2022).

Common to all, as to assay: Primary Screen for Target Class Profiling of Small Molecule Inhibitors of Methyltransferases
Assay [1] has as its target Glycine N-methyltransferase (Homo sapiens) (UniProt Q14749). As to conditions: purified enzyme, MTase-Glo SAH luminescence; measured here: GNMT inhibition; at 40 µM; stronger effect = lower value. The method, boiled down: (§1)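 Each enzyme was reacted with SAM and its substrate, with compounds tested once at 40 uM; SAH formed was read by MTase-Glo luminescence.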
In assay [2] the target is Guanidinoacetate N-methyltransferase (Homo sapiens) (UniProt Q14353). As to conditions: purified enzyme, MTase-Glo SAH luminescence; measured here: GAMT inhibition; at 40 µM; stronger effect = lower value. The method, boiled down:
as §1

Assay [3] deals with Histamine N-methyltransferase (Homo sapiens) (UniProt P50135). To be noted: purified enzyme, MTase-Glo SAH luminescence; measured here: HNMT inhibition; at 40 µM; stronger effect = lower value. The method, boiled down:
as §1

For assay [4], the target named is Nicotinamide N-methyltransferase (Homo sapiens) (UniProt P40261). To be noted: purified enzyme, MTase-Glo SAH luminescence; measured here: NNMT inhibition; at 40 µM; stronger effect = lower value. In outline:
as §1

For assay [5], the target named is Phenylethanolamine N-methyltransferase (Homo sapiens) (UniProt P11086). To be noted: purified enzyme, MTase-Glo SAH luminescence; measured here: PNMT inhibition; at 40 µM; stronger effect = lower value. In outline:
as §1

“And” between values parts separate entries of the source, which are not always exact repeats. Equal values may be shown once. The list shows a part of the results. Further columns of the screen follow, without active or inactive calls.
On the % scale 0 is the no-effect control and ±100 the full control effect.

In the case of `COc1ccccc1/C=C/CN1CCC(n2cc(CN(C)C)nn2)CC1`, the activity change, negative = inhibition in assay [1] is -5.28%; in assay [2], -13.1%; in assay [3], -8.18%; in assay [4] it was -15.2%; in assay [5] it was -15%.
Turning to `Cc1ccc(C)c(N2C(=O)CSc3c(c4ccccc4n3C)C2C(=O)NCCCOC(C)C)c1` (configuration not stated), the activity change, negative = inhibition is -9.23% in assay [1]; 3.9% in assay [2]; 0.58% in assay [3]; 0.538% in assay [4]; 0.004% in assay [5].
The matching figures for `COc1ccc(-c2c(C)nn3c(NCCN4CCOCC4)cc(C)nc23)cc1OC`: -4.58%, 6.34%, 6.38%, -6.61% and 5.31%.
Regarding `CCn1c(CN2CCN(c3nc4ccccc4s3)CC2)nnc1C1CC(N)C1` (configuration not stated), the activity change, negative = inhibition in assay [1] was -3.81%; in assay [2], -0.843%; in assay [3], -2.7%; in assay [4], 2.16%; in assay [5] it was -7.63%.
The matching figures for `CC(C)CNC(=O)c1ccc2c(=O)n(C(C)C)c3nn(CC(=O)Nc4ccc(F)cc4)c(=O)n3c2c1`: 6.92%, 0%, 11.5%, 1.74% and 6.87%.
Turning to `O=C(Nc1cccc(Nc2nccc(Nc3cccc(C(F)(F)F)c3)n2)c1)C1CC1`, the activity change, negative = inhibition in assay [2] was -1.34%; in assay [4] it was -43%; in assay [5], -23.5%.
For `Cc1ccc2occ(-c3cc(-c4ccc(F)cc4)nc4c3COc3ccc(F)cc3-4)c(=O)c2c1`, the figures for the activity change, negative = inhibition in assay [2], in assay [4] and in assay [5] were -9.4%, -19.7% and -4.71%, respectively.
For `Cc1nn(-c2ccccc2)c(C)c1/C=N/N1CCN(Cc2ccccc2)CC1`, the activity change, negative = inhibition in assay [1] was -8.51% and -11.5%; in assay [2], -6.76% and 3.78%; in assay [3], 2.77% and 0.769%; in assay [4], -13% and -8.08%; in assay [5], -4.81% and 2.74%.
Consider `C=C1C(=C/C=C2\CCC[C@]3(C)[C@@H]([C@H](C)/C=C/[C@@H](O)C4CC4)CC[C@@H]23)C[C@@H](O)C[C@@H]1O`, for which the values for the activity change, negative = inhibition in assay [2], in assay [4] and in assay [5] were -15.7%, -25.1% and -6.1%, respectively.
Regarding `Nc1ncnc2c1ncn2[C@@H]1O[C@H](CO)[C@@H](O)[C@H]1O`, the activity change, negative = inhibition is 169% in assay [1]; 104% in assay [2]; 32% in assay [3]; 39.4% in assay [4]; -27.6% in assay [5].
Take `Fc1ccc(-c2noc([C@@H]3Cc4nc[nH]c4CN3CCCc3ccccc3)n2)cc1Cl`: the activity change, negative = inhibition in assay [1] was -10.9%; in assay [2], -4.07%; in assay [3] it was -12.9%; in assay [4], -9.97%; in assay [5], -6.82%.
As for `O=S(=O)(Cc1ccccc1)N[C@H]1CO[C@H]2[C@@H]1OC[C@@H]2Nc1nccc(-c2cccc(F)c2)n1`, the activity change, negative = inhibition is -26.7% in assay [1]; -9.08% in assay [2]; -4.44% in assay [3]; -18.5% in assay [4]; -8.34% in assay [5].
Turning to `CC1CCC2C(C)(C)C(O)CCC2(C)C12Cc1c(O)cc3c(c1O2)CN=C3N` (configuration not stated), the activity change, negative = inhibition in assay [1] was -0.659%; in assay [2], -1.5%; in assay [3], 6.26%; in assay [4], -23.1%; in assay [5], 1.4%.
Regarding `Cc1nc(N2CCC(C(=O)NCC3CCCO3)CC2)cc(C(F)(F)F)n1` (configuration not stated), the activity change, negative = inhibition was -0.176% in assay [1]; -3.12% in assay [2]; -1.54% in assay [3]; -1.62% in assay [4]; 1.82% in assay [5].
Turning to `CC1(C)S[C@H]2[C@H](NC(=O)[C@@H](N)c3ccc(O)cc3)C(=O)N2[C@H]1C(=O)O`, the activity change, negative = inhibition is 5.41% in assay [2], -9.47% in assay [4] and 0.129% in assay [5].
In the case of `CC(=O)NC1C(OC(C)(C)C2CCC3(C)C=C(C4CCC5C4(C)CC(O)C4OC(C(C)(C)O)CCC45C)CCC3O2)OC(CO)C(O)C1O` (configuration not stated), the activity change, negative = inhibition in assay [1] was -6.26%; in assay [2], 15.2%; in assay [3] it was 7.92%; in assay [4] it was -0.331%; in assay [5] it was -4.87%.
In the case of `Cc1ccc(NC(=O)CCc2nnc3n(Cc4ccccc4)c(=O)c4ccccc4n23)cc1C`, the activity change, negative = inhibition in assay [1] is -5.48%; in assay [2], 1.45%; in assay [3], 3.79%; in assay [4], 6.86%; in assay [5] it was -0.255%.
The matching figures for `CC(C)NC(=O)c1ccc2c(=O)n(C3CC3)c3nn(CC(=O)Nc4cccc(Cl)c4)c(=O)n3c2c1`: -1.32%, 4.09%, 3.35%, -2.97% and 1.32%.
The matching figures for `CC1(C(=O)NC2CCCCC2)Cn2c(ccc2-c2ccco2)C(=O)N1CCc1ccc(Cl)cc1` (configuration not stated): -21.3%, -7.06%, -0.53%, -16.8% and -9.47%.
With `Cc1ccccc1CNC(=O)C1(C)Cc2ccccc2C(=O)N1Cc1cccc(F)c1` (configuration not stated), the activity change, negative = inhibition in assay [1] is 5.62%; in assay [2], 0%; in assay [3], 10.6%; in assay [4], -4.86%; in assay [5] it was 5.89%.
The matching figures for `CCCn1c(=O)c2ccc(C(=O)NC(C)CC)cc2n2c(SCC(=O)NC(C)(C)C)nnc12` (configuration not stated): 5.29%, 0%, 9.05%, -2.45% and 2.97%.
Consider `CC(C)OCCCNC(=O)c1cc2n(n1)CC(C)(C(=O)NCc1ccc(F)cc1)N(C)C2=O` (configuration not stated), for which the activity change, negative = inhibition in assay [1] was -1.9%; in assay [2], -0.242%; in assay [3], -2.27%; in assay [4] it was -3.04%; in assay [5], -0.83%.
As for `CCCN1C(=O)c2c(C(=O)NCc3ccc(OC)cc3OC)ncn2CC1(C)C(=O)NC1CCCC1` (configuration not stated), the activity change, negative = inhibition was -0.91% in assay [1]; 0.508% in assay [2]; 1.17% in assay [3]; -2.28% in assay [4]; 6.12% in assay [5].
Take `CCN1C(=O)c2cc3ccccc3n2CC1(C)C(=O)NCC(=O)NCc1ccc(OC)cc1` (configuration not stated): the activity change, negative = inhibition in assay [1] is 3.18%; in assay [2], 0%; in assay [3], 7.21%; in assay [4], -0.848%; in assay [5], 2.87%.
Regarding `Cc1cc2c(cc3n2CC(C)(C(=O)NC2CCCCCC2)N(Cc2ccc4c(c2)OCO4)C3=O)o1` (configuration not stated), the activity change, negative = inhibition in assay [1] came out at 5.28%; in assay [2], 2.37%; in assay [3], 7.13%; in assay [4], 5.36%; in assay [5], 4.73%.
On to `CCNc1ncnc2sc3c(c12)CCN(Cc1ccncc1)C3`, for which the activity change, negative = inhibition in assay [1] was -16.1%; in assay [2], -9.84%; in assay [3] it was -22.7%; in assay [4], -24.3%; in assay [5], -11.7%.
On to `CC(=O)Nc1c2n(c3ccc(F)cc13)CC(C)(C(=O)NC1CCCCC1)N(CCC(C)C)C2=O` (configuration not stated), for which the activity change, negative = inhibition was -6.41% in assay [1]; -3.06% in assay [2]; -0.171% in assay [3]; -7.39% in assay [4]; -5.44% in assay [5].
With `Cc1cccc(NC(=O)N2CCn3c(C)ccc3C2C(C)C)c1` (configuration not stated), the activity change, negative = inhibition in assay [1] is 7.36%; in assay [2], 0%; in assay [3] it was -2.1%; in assay [4] it was -0.954%; in assay [5], 1.19%.
The matching figures for `CSC(=O)OCC1=C[C@@H]2OC(=O)C3=CO[C@@H](O[C@@H]4O[C@H](CO)[C@@H](O)[C@H](O)[C@H]4O)[C@H]1[C@@H]32`: 1.22%, 4.42%, 5.47%, -6.2% and 1.04%.
On to `COc1cccc(CNC(=O)c2cc3n(n2)CC(C)(C(=O)NCCC(C)C)N(C)C3=O)c1` (configuration not stated), for which the activity change, negative = inhibition was determined as 9.12% in assay [1]; 0% in assay [2]; 11.4% in assay [3]; 1.23% in assay [4]; 8.12% in assay [5].
